Results as given in the supplement of paper PMC8285479.
Counter-ions that a name gives are not always drawn. ± gives the standard deviation of the averaged measurements. Whole data set: some 1,900 compounds, median “normalised cell viability (NPI; 0 = phenylarsine oxide control, 1 = DMSO control)” near 1, cut for the lowest 2% near 0.039. The list shows a part of the results.

System: NCI-H1944
Assay: normalised cell viability (NPI; 0 = phenylarsine oxide control, 1 = DMSO control) (fraction of DMSO control); NCI-H1944 is a non-small cell lung cancer line; higher = more viable cells (less compound toxicity)
Details: 6 days
[1] = glucocorticoid arm: hydrocortisone 2.75 uM co-treatment, compound 1 µM
[2] = glucocorticoid arm: hydrocortisone 2.75 uM co-treatment, compound 5 µM
[3] = glucocorticoid arm: hydrocortisone 2.75 uM pre-treated 2 days and continued, compound 1 µM
[4] = glucocorticoid arm: hydrocortisone 2.75 uM pre-treated 2 days and continued, compound 5 µM
[5] = glucocorticoid arm: vehicle, compound 1 µM
[6] = glucocorticoid arm: vehicle, compound 5 µM
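Further: CTB read-out in 384-well plates, mean of triplicate wells, normalised per plate against 1 µM phenylarsine oxide and 0.1% DMSO, compounds added 24 h after seeding.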

| Compound | normalised cell viability [1] | normalised cell viability [2] | normalised cell viability [3] | normalised cell viability [4] | normalised cell viability [5] | normalised cell viability [6] |
| --- | --- | --- | --- | --- | --- | --- |
| C/C=C1\NC(=O)[C@H]2CSSCC/C=C/[C@H](CC(=O)N[C@H](C(C)C)C(=O)N2)OC(=O)[C@H](C(C)C)NC1=O [Depsipeptide] | 6.37e-05 ± 0.001 | 1.05 ± 0.02 | 0.00143 ± 0.00036 | 1.027 ± 0.0058 | 0.00028 ± 0.00044 | 1.01 |
| C/C=C1\NC(=O)[C@H]2CSSCC/C=C/[C@H](CC(=O)N[C@H](C(C)C)C(=O)N2)OC(=O)[C@H](C(C)C)NC1=O [Romidepsin (FK228, Depsipeptide)] | 0.00704 ± 0.0021 | 0.000455 ± 0.00053 | 0.00593 ± 0.0021 | 0.000393 ± 0.00068 | 0.00559 ± 0.0012 | 2.1e-05 ± 0.00023 |
| C/C=C1\NC(=O)[C@H]2CSSCC/C=C/[C@H](CC(=O)N[C@H](C(C)C)C(=O)N2)OC(=O)[C@H](C(C)C)NC1=O [Romidepsin] | 1.005 ± 0.0092 | 1.02 ± 0.011 | 1.007 ± 0.0058 | 1.02 ± 0.015 | 0.9903 ± 0.0045 | 0.979 ± 0.019 |
| O=C(O)CC[C@H]1CC[C@@](c2cc(F)ccc2F)(S(=O)(=O)c2ccc(Cl)cc2)CC1 | 0.9867 ± 0.0045 | 0.9977 ± 0.0021 | 0.998 ± 0.012 | 0.995 ± 0.023 | 0.9953 ± 0.0042 | 0.993 ± 0.001 |
| CCCN(CCC)C(=O)C(CCC(=O)O)NC(=O)c1ccccc1 (stereo unspecified) [Proglumide] | 0.9937 ± 0.0085 | 0.997 ± 0.029 | 1.007 ± 0.0058 | 1.04 ± 0.072 | 1.007 ± 0.0058 | 1.01 ± 0.016 |
| Nc1nc(N)c2nc(-c3cccc(O)c3)cnc2n1 | 0.999 ± 0.02 | 0.985 ± 0.035 | 1.03 ± 0.046 | 0.965 ± 0.021 | 0.9967 ± 0.0049 | 0.9993 ± 0.0095 |
| COc1ccccc1N1CCN(CC(O)COc2cccc3ccccc23)CC1 (stereo unspecified) [Naftopidil DiHCl] | 0.961 ± 0.019 | 0.899 ± 0.014 | 0.967 ± 0.025 | 0.897 ± 0.024 | 0.996 ± 0.016 | 0.994 ± 0.0066 |
| COc1ccccc1N1CCN(CC(O)COc2cccc3ccccc23)CC1 (stereo unspecified) [Naftopidil] | 1.01 ± 0.015 | 0.996 ± 0.017 | 0.998 ± 0.02 | 1 ± 0.011 | 1.007 ± 0.0058 | 1.01 ± 0.01 |
| COc1ccccc1N1CCN(CC(O)COc2cccc3ccccc23)CC1 (stereo unspecified) [Naftopidil dihydrochloride] | 0.995 ± 0.013 | 1 ± 0.024 | 1.013 ± 0.0058 | 1.04 ± 0.059 | 1.003 ± 0.0061 | 1.02 ± 0.015 |
| CN1CCC(=C2c3ccccc3CC(=O)c3sccc32)CC1 [Ketotifen fumarate] | 1.01 ± 0.012 | 1.02 ± 0.027 | 1.01 ± 0.016 | 0.856 ± 0.28 | 0.9907 ± 0.0035 | 0.9967 ± 0.0049 |
| CN1CCC(=C2c3ccccc3CC(=O)c3sccc32)CC1 [Ketotifen Fumarate] | 1.03 ± 0.021 | 1.02 ± 0.015 | 1.02 ± 0.01 | 1.013 ± 0.0058 | 1.003 ± 0.0061 | 1.002 ± 0.0072 |
| CCOc1ccc(Cc2cc([C@@H]3O[C@H](SC)[C@@H](O)[C@H](O)[C@H]3O)ccc2Cl)cc1 [Sotagliflozin (LX4211)] | 0.994 ± 0.0079 | 0.926 ± 0.01 | 0.98 ± 0.029 | 0.946 ± 0.013 | 0.9947 ± 0.004 | 0.9953 ± 0.0081 |
| CC(=O)NCCc1c[nH]c2ccc(O)cc12 [N-Acetyl-5-hydroxytryptamine] | 0.993 ± 0.001 | 0.998 ± 0.014 | 0.873 ± 0.23 | 1.01 ± 0.025 | 1.013 ± 0.0058 | 0.9967 ± 0.0031 |
| O=c1ccc2ccc(O)c(O)c2o1 [Daphnetin] | 0.991 ± 0.0082 | 0.968 ± 0.017 | 0.9823 ± 0.0031 | 0.956 ± 0.038 | 0.992 ± 0.0092 | 0.991 ± 0.007 |
| Nc1ccc(-c2nc3ccc(-c4nc5ccc(N)cc5[nH]4)cc3[nH]2)cc1 | 1.003 ± 0.0058 | 1.01 ± 0.011 | 1.02 | 1.06 ± 0.01 | 0.9897 ± 0.0047 | 1 ± 0.0095 |
| C=CC(=O)Nc1cccc(Nc2nc(Nc3ccc(N4CCN(C(C)=O)CC4)cc3OC)ncc2C(F)(F)F)c1 | 0.877 ± 0.032 | 0.525 ± 0.011 | 0.867 ± 0.014 | 0.518 ± 0.081 | 0.972 ± 0.013 | 0.484 ± 0.096 |
| CS(=O)(=O)CCNCc1ccc(-c2ccc3ncnc(Nc4ccc(OCc5cccc(F)c5)c(Cl)c4)c3c2)o1 [Lapatinib ditosylate; Lapatinib; Lapatinib Ditosylate] | 0.9643 ± 0.0055 | 0.00258 ± 0.00055 | 0.968 ± 0.014 | 0.0327 ± 0.0022 | 0.947 ± 0.0092 | 0.00168 ± 0.00026 |
| CS(=O)(=O)CCNCc1ccc(-c2ccc3ncnc(Nc4ccc(OCc5cccc(F)c5)c(Cl)c4)c3c2)o1 [Lapatinib Ditosylate (Tykerb)] | 0.945 ± 0.0092 | 0.916 ± 0.017 | 0.981 ± 0.021 | 0.938 ± 0.028 | 0.911 ± 0.02 | 0.868 ± 0.022 |
| CN1CCc2ccccc2Cc2[nH]c3ccccc3c2CC1 | 1 | 1.03 ± 0.035 | 1.007 ± 0.0058 | 1.01 ± 0.019 | 0.984 ± 0.0044 | 1 ± 0.017 |
| FC(F)(F)c1cc(COC2CCCNC2c2ccccc2)cc(C(F)(F)F)c1 [L-733,060 hydrochloride] | 0.9863 ± 0.0067 | 0.843 ± 0.034 | 1 ± 0.014 | 0.993 ± 0.076 | 0.9957 ± 0.0067 | 0.928 ± 0.076 |
| NC(=O)C(=O)O [Sodium Oxamate] | 0.9883 ± 0.007 | 0.987 ± 0.02 | 1.01 ± 0.013 | 1.01 ± 0.088 | 1.013 ± 0.0058 | 1 ± 0.012 |
| COc1cc(Cc2cnc(N)nc2N)cc(OC)c1OC [Trimethoprim] | 1.013 ± 0.0058 | 1.01 ± 0.015 | 1.01 ± 0.023 | 1.03 ± 0.015 | 1.013 ± 0.0058 | 1.013 ± 0.0058 |
| CN(C)c1cc2c(Nc3ccc4c(cnn4Cc4ccccc4)c3)ncnc2cn1 | 0.979 ± 0.012 | 1.02 ± 0.016 | 1.01 ± 0.011 | 1.05 ± 0.015 | 0.991 ± 0.0053 | 0.9677 ± 0.004 |
| NC(N)=NCc1cccc(I)c1 [m-Iodobenzylguanidine hemisulfate] | 0.995 ± 0.007 | 0.879 ± 0.034 | 0.9907 ± 0.0076 | 0.992 ± 0.095 | 0.9797 ± 0.0081 | 0.995 ± 0.0046 |
| N#CC(=C(/N)Sc1ccccc1N)/C(C#N)=C(/N)Sc1ccccc1N | 1.023 ± 0.0058 | 0.951 ± 0.011 | 0.901 ± 0.2 | 1.07 | 1.004 ± 0.01 | 0.992 ± 0.011 |
| NS(=O)(=O)c1cccc2c1c([N+](=O)[O-])cc1nc(O)c(O)nc12 [NBQX disodium] | 0.994 ± 0.006 | 0.994 ± 0.014 | 1.01 ± 0.011 | 1.03 ± 0.081 | 1.01 | 1.01 ± 0.011 |
